Test results: paper PMC4336329 (PLoS ONE, 2015)
Among all 310,000 compounds or so, about 2,200 (0.71%) showed an effect of 50% or more. Effects have a minus sign here. The list shows a part of the results.

molecular target: human ether-à-go-go-related gene (hERG) potassium channel (human, UniProt Q12809); test: primary screen, population patch clamp on CHO cells stably expressing hERG
Sequence (Q12809 whole entry, looked up): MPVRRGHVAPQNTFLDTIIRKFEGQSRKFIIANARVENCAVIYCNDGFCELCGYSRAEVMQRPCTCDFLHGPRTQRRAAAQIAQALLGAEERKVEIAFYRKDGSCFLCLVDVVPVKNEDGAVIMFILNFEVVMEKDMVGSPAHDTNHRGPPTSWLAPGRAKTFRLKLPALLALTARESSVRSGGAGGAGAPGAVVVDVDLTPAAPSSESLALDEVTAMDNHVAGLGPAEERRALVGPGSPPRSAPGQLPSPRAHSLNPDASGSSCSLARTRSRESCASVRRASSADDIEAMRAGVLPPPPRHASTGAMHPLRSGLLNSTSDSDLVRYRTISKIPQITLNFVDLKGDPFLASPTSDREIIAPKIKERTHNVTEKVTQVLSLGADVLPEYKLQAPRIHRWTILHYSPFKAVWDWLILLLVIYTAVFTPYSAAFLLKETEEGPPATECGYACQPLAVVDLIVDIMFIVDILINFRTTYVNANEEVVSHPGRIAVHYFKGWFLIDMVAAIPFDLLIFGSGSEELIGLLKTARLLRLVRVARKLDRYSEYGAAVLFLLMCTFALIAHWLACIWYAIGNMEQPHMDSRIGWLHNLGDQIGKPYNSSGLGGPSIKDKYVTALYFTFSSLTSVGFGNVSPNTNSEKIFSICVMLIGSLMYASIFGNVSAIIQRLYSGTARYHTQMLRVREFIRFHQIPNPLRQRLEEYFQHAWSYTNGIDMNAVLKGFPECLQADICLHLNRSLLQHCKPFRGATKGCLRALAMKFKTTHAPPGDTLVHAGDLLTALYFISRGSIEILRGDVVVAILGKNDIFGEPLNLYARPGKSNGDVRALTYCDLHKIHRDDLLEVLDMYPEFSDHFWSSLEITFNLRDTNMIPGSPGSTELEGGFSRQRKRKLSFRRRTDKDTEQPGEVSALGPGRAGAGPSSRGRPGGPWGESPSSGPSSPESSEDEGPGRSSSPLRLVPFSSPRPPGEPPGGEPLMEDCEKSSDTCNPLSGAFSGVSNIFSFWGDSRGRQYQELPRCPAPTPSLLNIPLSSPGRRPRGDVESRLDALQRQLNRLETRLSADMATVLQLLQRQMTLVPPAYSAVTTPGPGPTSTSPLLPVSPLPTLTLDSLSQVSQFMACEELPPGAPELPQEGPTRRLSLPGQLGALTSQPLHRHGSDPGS

Compound | hERG current change (%, negative = inhibition) at 1uM [%]
CC1(C)Cc2c(cnn2-c2ccc(F)cc2)C(NC(=O)c2ccoc2)C1 (stereo not shown) | -95.7
O=C(NC(C(=O)c1ccccc1)N1CCCCC1)c1ccccc1 (stereo not shown) | 8.23
Nc1ccc([N+](=O)[O-])cc1 | 13.6
CNC(=S)NNC(=O)c1sc2cc(C(F)(F)F)cnc2c1-c1ccccn1 | 4.79
COC(=O)C1CCN(C(=O)COC(=O)Cc2c[nH]c3ccccc23)CC1 | 5.1
O=C(NCc1ccccc1)NC1(C(=O)N2CCOCC2)CCCCC1 | 6.64
COc1ccc(S(=O)(=O)Nc2ccc3c(c2)OCCO3)cc1Cl | 5.1
CC(OC(=O)/C=C/c1ccco1)C(=O)NC1CCCCC1C (stereo not shown) | 4.12
CC1(c2ccccc2)NC(=O)N(CC(=O)N2CCOCC2)C1=O (stereo not shown) | 7.93
COc1cc(C(=O)NC2CCN(Cc3ccccc3)CC2)cc(Cl)c1OC | -1.24
O=C(CCc1nnc2n(Cc3ccc(F)cc3)c(=O)c3ccccc3n12)NCCCN1CCOCC1 | 10.5
COc1ccc(C(=O)CCC(=O)NCCc2c[nH]c3ccccc23)cc1 | 4.74
O=C(c1ccc(F)cc1)N1CCN(c2ccc([N+](=O)[O-])c(N3CCCCC3)c2)CC1 | 9.28
Cc1cccc(C)c1NC1=C(Cl)C(=O)OC1OC(C)C (stereo not shown) | 19.8
O=C(Nc1nccs1)c1cn2ccccc2n1 | 9.99
O=C(CCCSc1ccc(Cl)cc1)Nc1ccccc1O | 13.9
O=C(Nc1c(F)cc(F)cc1Br)c1cc(S(=O)(=O)N2CCN(c3ccccn3)CC2)ccc1F | 0.58
Cc1ccc(NC(=O)Nc2ccc3c(c2)nnn3C)cc1C | 20.8
Cc1cn(COC/C=C/c2ccccc2)c(=O)[nH]c1=O | 7.16
COc1ccc(-n2c(SCC(=O)N3CCOCC3)nc(O)c(Cc3ccccc3)c2=O)cc1 | 11.3

Compound | hERG current change (%, negative = inhibition) at 1uM [%]
S=c1[nH]nc(-c2cccnc2)n1/N=C/c1ccccc1 | 10.9
CCC/C(C)=N\Nc1nc2c(c(=O)n(C)c(=O)n2C)n1C | 9.59
CC1=C(C(=O)OC(C)C)[C@@H](c2ccc(C)o2)NC(=O)N1 | 17.5
CCOc1ccc(N(CC(=O)NC2CCCCC2)C(=O)CCC(=O)Nc2nccs2)cc1 | 0.629
CCC1CCCCN1C(=O)CSc1nc2c(c(=O)n1C)SC(C)C2 (stereo not shown) | -1.54
O=C(Nc1ccc2c(c1)OCO2)N1CCCc2ccccc21 | 9.3
CC(=O)NCC(=O)OCC(=O)N1c2ccccc2Sc2ccccc21 | 10.1
O=C(Nc1ccc(CN2CCOCC2)cc1)c1ccco1 | 9.74
O=C(CCN1N=C(c2ccccc2)CCC1=O)NCC1COc2ccccc2O1 (stereo not shown) | 4.36
N#Cc1ccc(/C=N/NC(=O)c2ccccc2F)cc1 | 9.55
Cc1nnn(-c2nonc2N)c1C(=O)N/N=C/c1ccccc1O | 10.8
Cc1ccc(NC(NC(=O)c2cccs2)C(Cl)(Cl)Cl)cc1C (stereo not shown) | 11.7
CC(O)CNc1nc2ccccc2n1CC(=O)NCC(F)(F)F (stereo not shown) | 5.03
COc1ccc(OC)c(S(=O)(=O)N(C)CC(=O)N2CCN(c3cccc(Cl)c3)CC2)c1 | -2.54
Cc1cc(C(=O)NCC2COc3ccccc3O2)c2ccccc2n1 (stereo not shown) | 7.15
CCC(CC)C(=O)Nc1ccc(Cl)c(Cl)c1 | 9.86
O=C(Cn1nc(-c2ccccc2)c2ccccc2c1=O)Nc1ccc(F)cc1 | 13.3
Nc1c(Cl)cnn(-c2ccccc2)c1=O | 12.3
CC1=C(C(=O)OCc2ccccc2)C(c2cccc([N+](=O)[O-])c2)NC(=O)N1 (stereo not shown) | 15.1
CCOc1ccccc1NC(=O)COC(=O)C1CCC1 | 5.87

Compound | hERG current change (%, negative = inhibition) at 1uM [%]
COC(=O)c1[nH]c2c(c1C)C(=O)CC(c1cc(OC)c(OC)c(OC)c1)C2 (stereo not shown) | 3.77
CCOc1cc(C(=O)N/N=C/C(Br)=C/c2ccccc2)cc(OCC)c1OCC | 7.24
CC1(C)CC(=O)c2cc(OCC(=O)N3CCN(c4ccccc4F)CC3)ccc2O1 | 10.5
Cc1cc(C)cc(N=Cc2[nH]c3ccc(Br)c(Cl)c3c2O)c1 | 14.7
CNC(=O)CC1C(=O)N(Cc2ccccc2)C(=S)N1NC(=O)c1cccc(F)c1 (stereo not shown) | 8.71
Cc1ccc(NC(=O)CN2C(=O)c3ccccc3C2=O)nc1 | 2.52
Cc1c(NC(=O)CN2C(=O)NC(C)(c3ccccc3)C2=O)c(=O)n(-c2ccccc2)n1C (stereo not shown) | 5.86
CCCS(=O)(=O)N1CCc2cc(OC)c(OC)cc2C1 | 12.6
COc1cc(NC(=O)c2ccccc2)c(OC)cc1NC(=O)CN1CCCCC1.Cl | 6.17
CCCc1nc2scc(-c3ccccc3)c2c(=O)n1N | 2.47
Cc1cccc(NC(=S)NCc2cccn2C)c1 | -5.34
Cc1ccc([N+](=O)[O-])cc1NC(=O)CSc1nncn1-c1ccccn1 | 4.27
CC(=O)n1cc(/C=N/NC(N)=S)c2ccccc21 | -1.58
CCOc1ccccc1OCC(=O)NCc1ccco1 | 8.23
Cc1noc(C)c1COC(=O)C1CCN(S(=O)(=O)c2c(Cl)cccc2Cl)CC1 | 11.7
CN(CC(=O)NCc1ccccn1)S(=O)(=O)c1ccc(Cl)cc1 | -0.147
COc1ccc(/C=C/C(=O)NNc2cc(=O)n(C)c(=O)n2C)cc1OC | 7.2
O=C(CN1CCC(c2nc3ccccc3[nH]2)CC1)NCc1ccc2c(c1)OCO2 | -41.1
